Test results reported in patent publication US7205333B2 (priority 2000, dated 2007).

How the values were obtained:
Assay in all cases: Inhibition of cytopathic effect (CPE) of influenza virus replication in MDCK cells
Conditions in all cases: read-out: IC50 nM per ZMV equiv
[1] = test system: A/Sydney/5/97
Method: (§1) The trimeric compound of Example 3 was tested for its ability to inhibit the replication of influenza A and influenza B virus, essentially following the standard method described in the literature (see for example Watanabe et al, J. Virological Methods, 1994 48 257). The assay was carried out using MDCK cells and three different influenza virus strains, two influenza A and one influenza B, and the results are shown in Table 1. The results are shown as IC50, the minimum compound concentration which inhibits cytopathic effect by 50% [(μg/ml)], calculated by using a regression analysis program for semi-log curve fitting. […] The therapeutic index for the compounds can be calculated by dividing the minimum cytotoxic drug concentration (MTC) by the ID50.

[2] = test system: A/Victoria/3/75
Method: as §1

[3] = test system: B/Harbin/7/95
Method: as §1

Row | Structure (SMILES) | IC50 [1] [nM] | IC50 [2] [nM] | IC50 [3] [nM]
1 | CC(=O)N[C@H]1[C@H]([C@H](OC(=O)NCCCCCCN)[C@H](O)CO)OC(C(=O)O)=C[C@@H]1NC(=N)N [Compound (2) TFA2, 5-acetamido-7-(6-aminohexylcarbamoyloxy)-4-guanidino-2,3,4,5-tetradeoxy-D-glycero-D-galacto-non-2-enopyranosonic acid] | 588 | 52.7 | 259
2 | CC(=O)N[C@H]1[C@H]([C@H](O)[C@H](O)CO)OC(C(=O)O)=C[C@@H]1NC(=N)N [Zanamivir, 4-guanidino-2-deoxy-2,3-dehydro-N-acetylneuraminic acid, reference compound] | 77.7 | 73.9 | 31.2
